Assay results: the supplement of paper PMC3724861
This is one part of the list.

Test system: T1, Caupolican (Caup) homeodomain DNA-binding domain
T1 sequence: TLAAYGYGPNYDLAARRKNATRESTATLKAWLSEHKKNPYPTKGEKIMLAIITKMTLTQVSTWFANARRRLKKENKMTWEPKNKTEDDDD
Test: PBM E-score (8-mer, recovered from the published 9-mer minima) (E-score (dimensionless, -0.5 to 0.5)); Drosophila protein; higher = stronger relative binding preference, active = 0.31 or more
Summary of the method: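 Caup's homeodomain DNA-binding domain (residues 214-303) was produced by in vitro transcription and translation and applied at 100 nM to custom-designed protein binding microarrays. Each value is an enrichment score giving relative binding preference for a short DNA word; higher means stronger. Published 9-mer scores were the minimum of their two constituent 8-mer scores, and the 8-mer values were recovered from those minima. A cutoff of 0.31 marks candidate binding sequences.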

Sequence	PBM E-score
CATGCTTA	inactive: 0.127
ATGTAAGC	inactive: 0.231
TATTATCA	inactive: 0.157
CAATGACG	inactive: 0.0695
AGGCCTTA	inactive: -0.112
ACGAACAC	inactive: 0.24
AGTGGCTA	inactive: -0.11
GAGATTCA	inactive: 0.0308
TGGAAACA	inactive: 0.192
GTAATCGA	inactive: 0.171
CCTAAAGA	inactive: -0.122
CGTATAAA	≥ 0.135
ATGTGATC	inactive: 0.211
GCCTATCA	inactive: -0.108
ATATAGGA	≥ 0.127
CCATCACC	inactive: -0.0284
GGTCGCAA	inactive: -0.111
ATCACTTG	inactive: 0.172
GCGGGGGA	inactive: -0.279
GGGTCGAC	inactive: -0.122
CTCCGGCA	inactive: -0.112
AATGTCGC	inactive: 0.191
ACACTTCC	inactive: -0.0229
GACCCAAC	inactive: -0.0923

Sequence	PBM E-score
ACCGTGTC	active: 0.312
CCAAGGCA	inactive: -0.181
AAGCTTTA	≥ 0.0355
CTCCTTTC	inactive: -0.118
CAGCGTAC	inactive: -0.0501
CAGGTCGC	inactive: -0.0801
CGGGGTAC	inactive: -0.117
ACTGTAGA	inactive: 0.136
ATGGGTTC	inactive: -0.0378
AGGGTATA	inactive: 0.102
ATTTCTCA	inactive: 0.0413
TCAAATAA	inactive: 0.152
CATTTATC	inactive: 0.103
AACTCCCT	inactive: -0.108
ACAAAACC	inactive: 0.0917
GACAGATC	inactive: 0.0695
ACTCAATG	inactive: 0.124
GTTTTATA	inactive: 0.13
ACGATTCT	inactive: 0.0871
GAGGGTAA	inactive: -0.0695
ACCTCGGG	inactive: -0.143
ACTCCGAG	inactive: -0.0336
CGCCGTAC	inactive: -0.0654
GACGACCC	inactive: -0.0427

Sequence	PBM E-score
GCATCTAC	inactive: 0.0527
CTGCTCTC	inactive: 0.0066
AACAGAAG	inactive: 0.0837
GCGGGGCA	inactive: -0.224
CAGCTTTC	inactive: -0.131
CTACTCAA	inactive: 0.116
AAGGCACC	inactive: -0.126
CCGTGTAA	active: 0.35
CCACAAGC	inactive: -0.0871
CAACGCCG	inactive: -0.0702
ACTCAGTA	inactive: 0.0624
GACTCAGC	inactive: -0.117
ACGTGTCA	active: ≥ 0.374
TCTGCGAA	inactive: -0.0101
CGAGCAAG	inactive: -0.0126
ACAGTTCT	inactive: 0.0357
GCGATTGA	inactive: -0.0316
CTACGCGC	inactive: -0.137
TAAGGCCA	inactive: -0.0926
GCGGTGAC	inactive: -0.0727
GGTCGCTA	inactive: -0.0843
CCCCGCGG	inactive: -0.21
AGGACGCA	inactive: -0.0925
ACCACTGC	inactive: -0.0739

Sequence	PBM E-score
TCGCTCCA	≥ -0.0697
GCACAACA	inactive: 0.211
AAGCTATG	inactive: -0.0119
ACTCGGAT	inactive: 0.0601
AAGAGCAG	inactive: -0.0917
GATCGTCA	inactive: 0.0677
GGTTTATA	inactive: 0.113
GACTTCAA	inactive: 0.0353
AGCCCGAA	inactive: -0.154
CAAGTCGA	inactive: 0.0142
CGCACGAA	inactive: -0.0549
AGAGAACT	inactive: -0.0403
CCGGTGTC	inactive: 0.0381
ACAGCGTG	inactive: 0.156
ACTTGGTG	inactive: -0.0142
CATCATGG	inactive: -0.0399
GCTTTTGA	inactive: -0.0513
CTCTTCAC	inactive: -0.044
CCATCGGC	inactive: -0.2
AATAATCA	inactive: 0.145
CACGTGAC	inactive: 0.125
CAATTAGA	inactive: 0.0523
GCCGGTTA	inactive: -0.0272
GCACGAGA	inactive: -0.0905

Sequence	PBM E-score
AGCTCCAG	inactive: -0.231
CATTTTAA	inactive: 0.036
CCGCGATA	inactive: -0.07
AATCGCTC	inactive: -0.0884
CCGGTAGA	inactive: -0.0549
ACCTATAT	≥ 0.132
AGAGCACA	inactive: 0.0054
CAACCAGG	inactive: -0.0261
ATCTACGA	inactive: 0.0766
AAGTTATG	inactive: 0.185
ACGTGAGT	inactive: -0.00215
ACTGGGAA	inactive: -0.0105
GAAGTATC	inactive: 0.111
AGTTACCA	inactive: 0.113
CATGTGCA	inactive: 0.119
AGCATGGC	inactive: -0.0367
ACGGAGGG	inactive: -0.116
CCTGTACA	active: 0.32
GGTAAATA	inactive: 0.0527
CCAATTCA	inactive: 0.0663
CTTAAGTA	inactive: 0.0732
GCCATATA	inactive: 0.0416
ATACATAA	active: 0.348
CCACACAG	inactive: -0.0418

Sequence	PBM E-score
GCGGGATA	inactive: -0.0601
AGGAGACG	inactive: -0.0975
CGCAAGAC	inactive: -0.181
CAGCGACG	inactive: -0.0731
AACGATGT	active: 0.35
CAGGCATG	inactive: 0.027
AGCGATCC	inactive: -0.00786
AGCTCCCT	inactive: -0.171
GCTCTGGA	inactive: -0.0411
GTTACGTA	inactive: 0.0824
CATAGAAA	inactive: 0.122
GCTAGACC	inactive: -0.158
AAGCGTAG	inactive: -0.0786
ATCGCCAG	inactive: -0.0646
ATAACCAG	inactive: 0.153
CCAAAGAC	inactive: -0.0508
GACGCCCC	inactive: -0.248
CCAGATGC	inactive: -0.0207
ATTCTCTA	inactive: -0.014
TAAGTCCA	inactive: 0.0297
ACACAAGT	inactive: 0.253
TCGCCGAA	inactive: -0.0752
CGTGTTTC	inactive: 0.236
